# The whole screen tested about 360,000 compounds, of which about 17,000 (4.7%) were called active. The inconclusive results got no clear call from the source; some entries with a clear call stand among them for comparison. No stated cut-off is given here; in the data, active means activity change below about -50%; inconclusive means mostly about -30% to -49%; inactive means weaker than that.
# Experiment: qHTS for Inhibitors of Inflammasome Signaling: IL-1-beta AlphaLISA Primary Screen
# Conditions: THP-1 LPS/ATP IL-1B secretion, 16 h; at 57.5 µM, hits give low values
# In short: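 Secreted IL-1B measured by AlphaLISA bead assay after 16 h compound exposure of THP-1 cells; compounds (final up to 57.5 uM) added 1 h before LPS (250 ng/mL) and ATP (1.25 mM) stimulation; lower signal means less secretion.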
# On the % scale 0 is the no-effect control and ±100 the full control effect.
row,SMILES,activity change
1,Cc1cccc(N/C=C(\[N+](=O)[O-])S(=O)(=O)c2ccccc2)c1C,inactive: 18.9%
2,CCCC(CCC(=O)Nc1cccc([N+](=O)[O-])c1)C(=O)O (centres undefined),inactive: 5.15%
3,COc1ccc(NC(=S)N(CCC(C)C)C2CCN(C(C)C)CC2)cc1Cl,inconclusive: -45.8%
4,COC(=O)c1ccc(S(=O)(=O)NCc2ccccn2)n1C,inactive: 8.25%
5,O=[N+]([O-])c1cc(S(=O)(=O)CCCN2CCOCC2)ccc1F,inconclusive: -49.7%
6,COc1ccc(Cl)cc1NC(=O)CSc1nc(=O)n(CCN(C)C)c2c1CCCC2,inconclusive: -32.2%
7,Cc1ccc(N2CCN(C3=NC(=O)/C(=C\c4cccs4)S3)CC2)cc1,inconclusive: -38.4%
8,CC1CCCCC1NCc1cccc([N+](=O)[O-])c1 (centres undefined),inconclusive: -31.3%
9,Nc1[nH]c(C(=O)c2ccccc2)c(-c2ccc(F)cc2)c1C(=O)NCCc1c[nH]c2ccccc12,inconclusive: -43.9%
10,Cc1cccc(Nc2nc(N)c(C#N)c(CC#N)c2C#N)c1,inconclusive: -32.6%
11,CCOC(=O)C1=C(CNCCc2ccc(Cl)cc2)NC(=O)NC1c1cccc([N+](=O)[O-])c1 (centres undefined),active: -65.5%
12,Cc1ccc(-c2ccc(=O)n(CC(=O)N3CCN(c4cccc(C)c4)C(C)C3)n2)cc1 (centres undefined),active: -60.9%
13,COC(=O)C1=CN(c2ccc(F)cc2)C=C(C(=O)OC)C1c1ccc(O)cc1,inconclusive: -40.7%
14,COc1ccc(NC(=S)NC(=O)C2CCC2)cc1,inconclusive: -32.7%
15,CN(CCc1ccccc1)C(=O)c1ccc(NC(=O)Cc2ccc(NC(=O)C3CCN(C(=O)c4ccccc4)CC3)cc2)cc1,inconclusive: -47.9%
16,CCN1CCN(C(=O)C2CCN(Cc3nc(-c4cccc(Cl)c4)oc3C)CC2)CC1,inconclusive: -33.4%
17,Cc1[nH]c2ccccc2c1/C=C(\C#N)C(=O)NCC1CCCO1 (centres undefined),inconclusive: -38.5%
18,COc1cc(-c2nnc(-c3ccco3)o2)ccc1OCc1ccccc1,inconclusive: -35%
19,COc1ccc(-c2nc(N)ncc2-c2ccccc2OC)c(O)c1,inconclusive: -34.1%
20,O=C(N/N=C/c1ccccc1OC(F)F)NC1CCCCC1,inconclusive: -40.5%
21,CCN(C)C1CN(Cc2cn(Cc3ccccc3)nn2)S(=O)(=O)C1 (centres undefined),inactive: -1.43%
22,O=C(N/N=C/c1c[nH]c2ccc(Br)cc12)c1ccccn1,inconclusive: -31.2%
23,CCCCc1ccc(NC(=S)N2CCCC(C)C2)cc1 (centres undefined),inconclusive: -39%
24,CCc1cccc(NC(=O)CCCCCC2NC(=O)NC2C)c1 (centres undefined),active: -109%

# — PubChem BioAssay AID743279 (National Center for Advancing Translational Sciences (NCATS), 2014)
